From PubChem BioAssay AID463173 (ICCB-Longwood Screening Facility, Harvard Medical School, 2010)
Among all 52,000 compounds or so, about 1,700 (3.3%) were called active. Cut-off read from the data, not from the text of the source: active = survival mostly below about 52% (no sharp cut-off); inactive = mostly above about 56%. This is one part of the list.

These molecules were tested on Wild type (assay: S. aureus survival, RN4220 and DeltatarO strains – OD600, teichoic acid synthesis inhibitors, primary screen (AID 463173)). Details: S. aureus RN4220 wild type/DeltatarO growth, OD600, 18 h, active compounds read low, screened at 18.75 µg/mL (by protocol).

SMILES | survival
Cc1ccc(S(=O)(=O)NCCc2sc3nc(-c4ccccc4)nn3c2C)cc1C | inactive: 64%
CC(C)(C)c1ccc(OCCCC(=O)N2CCOCC2)cc1 | inactive: 102%
Cc1oc(-c2cccc(Br)c2)nc1Cn1c(=O)cc(-c2ccccc2)c2c(C)nn(C)c21 | inactive: 78%
O=C(Cn1c(=O)n(-c2ccc(F)cc2)c(=O)c2sc3ccccc3c21)NC1CCCCC1 | inactive: 91%
CCOC(=O)c1ccc2c(c1)N(Cc1cccc(C(F)(F)F)c1)C(=O)c1ccccc1S2(=O)=O | inactive: 73%
CCCOc1ccc(Nc2cc(C)nc(C)n2)cc1 | inactive: 82%
CCOc1ccc2nc(NCCNC(=O)C3CCCCC3)c(C#N)cc2c1 | inactive: 113%
COc1ccc(N2CCN(Cc3cc(=O)oc4ccc(OC)cc34)CC2)cc1 | inactive: 85%
CCc1ccccc1Nc1cc(C(=O)NCCc2ccccc2)c2ccccc2n1 | inactive: 148%
COc1ccccc1NC(=O)C1=C(C)Nc2nc3ccccc3n2C1c1cccc(Br)c1 (centres undefined) | inactive: 93%
COc1ccc(Cn2c(=O)[nH]c3cc(C(=O)N4CCN(c5ccccc5)CC4)ccc3c2=O)cc1 | inactive: 124%
Cc1ccc(CNC(=O)CCC(=O)N2Cc3ccccc3Oc3ncccc32)cc1 | inactive: 73%
COc1ccc(OC)c(CCNc2nccn(-c3ccc(C)c(C)c3)c2=O)c1 | inactive: 73%
O=C(NCC(c1cccnc1)N1CCOCC1)C(=O)Nc1ccc(F)cc1 (centres undefined) | inactive: 86%
Cn1c(SCc2cccc(F)c2)nc2c([nH]c3ccccc32)c1=O | inactive: 129%
CCCn1ccc2c(OCC(=O)Nc3ccccc3OCC)cccc2c1=O | inactive: 99%
O=C(Nc1ccc2nc(SCC(=O)N3CCCc4ccccc43)sc2c1)c1cccc(Cl)c1 | inactive: 91%
COc1ccc(CCNC(=O)C2CCN(c3nc4ccccc4nc3C(F)(F)F)CC2)cc1OC | inactive: 81%
COc1ccc(C(=O)Oc2c(Sc3ccccc3)c(C)nn2-c2ccccc2)cc1OC | inactive: 65%
CN(C(=O)c1ccc(Br)cc1)C1CCCCC1 | inactive: 110%

SMILES | survival
Cc1ccc(NC(=O)CN2C(=O)CSc3ccc(S(=O)(=O)N4CCCC4)cc32)c(C)c1 | inactive: 98%
O=C(NC1CSCC1=O)c1ccccc1 (centres undefined) | inactive: 108%
COCCCNS(=O)(=O)c1ccc(N2CCCCS2(=O)=O)cc1 | inactive: 76%
COc1ccc(NC(=O)C2=C(C)C(=O)OC23CCN(C(C)C)CC3)cc1Cl | inactive: 77%
Cc1ccccc1NC(=O)CSc1nc2ccc(NC(=O)c3ccccc3)cc2s1 | inactive: 72%
CC1CCC(Nc2ncnc3onc(-c4ccc(Cl)cc4)c23)CC1 (centres undefined) | inactive: 60%
COc1ccc(-c2coc3c2c(C)cc2oc(=O)c(C)c(C)c23)cc1 | inactive: 74%
CC(=O)OCc1cnc(C)c2oc(=O)c(C(=O)Nc3ccc(C)cc3Cl)cc12 | inactive: 121%
CCCOC(=O)C(N)c1ccccc1 (centres undefined) | inactive: 110%
COc1ccc(-c2sccc2C(C)C(=O)O)cc1 (centres undefined) | inactive: 111%
Cc1cc(C)cc(C(=O)Nc2ccc(N3CCN(S(C)(=O)=O)CC3)cc2)c1 | inactive: 123%
Cc1ccc(CNC(=O)c2oc3ccc(S(=O)(=O)N4CCC(C)CC4)cc3c2C)cc1 | inactive: 74%
CCCCN1C(=O)CN(C2CCCCCC2)C(=O)C1c1ccc(OC(C)C)c(OC)c1 (centres undefined) | inactive: 129%
COc1ccc(C(=O)n2nc(C)cc2C)cc1 | inactive: 111%
Cc1cccc(OCC(=O)Nc2ccc3nc(Nc4cccc(C(F)(F)F)c4)cc(C)c3c2)c1 | inactive: 95%
COc1ccccc1CNC(=O)c1ccc2c(c1)N(Cc1cc(C)ccc1C)C(=O)c1ccccc1S2 | inactive: 74%
CC(C)(O)c1cc(=O)sc2nc3ccccc3n12 | inactive: 99%
CCCCNC(=O)c1cc2c(=O)n3cccc(C)c3nc2s1 | inactive: 145%
CCCn1cnc2c1c(=O)n(C)c(=O)n2C | inactive: 106%
O=C(CCc1ccccc1)Nc1nccs1 | inactive: 103%

SMILES | survival
Cc1nnc(NCc2ccco2)s1 | inactive: 107%
CCOc1ccc(NC(=O)Cn2cc(C(=O)c3ccc(F)cc3)c(=O)c3cc4c(cc32)OCCO4)cc1 | inactive: 89%
COc1ccc(-c2cc(C(F)(F)F)n3nc(C(=O)O)c(Cl)c3n2)cc1OC | inactive: 70%
Cc1ccc(-n2ncc(C(=O)N3CCN(Cc4ccccc4)CC3)c2C2CCN(C(=O)OC(C)(C)C)CC2)cc1 | inactive: 124%
CC(=O)c1cc(-c2ccccc2)n(CCC(=O)Nc2ccc(C(C)C)cc2)c1C | inactive: 128%
Cc1ccc(-n2ccnc(NCCc3ccc(S(N)(=O)=O)cc3)c2=O)c(C)c1 | inactive: 81%
COc1ccc(NC(=O)Cn2cnc3ccc(S(=O)(=O)N4CCC(C)CC4)cc3c2=O)cc1Cl | inactive: 158%
CC(=O)Nc1ccc(C2=CSC3=NCCN23)cc1 | inactive: 89%
CC(C)(C)OC(=O)N1CCC(c2c(C(=O)NCCN3CCCC3)cnn2-c2ccc(Cl)cc2)CC1 | inactive: 71%
CCOc1ccc(/C=C/c2nc(C#N)c(NC3CCCCC3)o2)cc1 | inactive: 78%
Cc1oc(-c2ccc(C(=O)NCc3ccc(F)cc3)cc2)nc1CS(=O)c1ccccc1 (centres undefined) | inactive: 68%
Cc1cc(C)cc(C(=O)Nc2c(C(=O)Nc3ccccc3F)oc3ccccc23)c1 | inactive: 22%
CC(=O)c1cc2c(cc1N/C(=N/S(=O)(=O)c1ccccc1)c1ccc(Cl)cc1)OCO2 | active: -2%
COc1ccccc1-c1nnc(SCC(N)=O)o1 | inactive: 84%
CC(C)c1ccc(NC(c2nnc(-c3ccccc3)o2)c2ccc(F)cc2Cl)cc1 (centres undefined) | inactive: 69%
CCN(CC)CCNC(=O)c1ccc(-c2nc(CS(=O)(=O)c3ccc(C)cc3)c(C)o2)cc1 | inactive: 72%
COc1ccccc1OCCn1c(C(C)Oc2ccccc2)nc2ccccc21 (centres undefined) | inactive: 76%
COc1ccc(CNC(=O)C2CCN(c3nnc(-n4cccc4CNc4ccc(C)cc4)s3)CC2)c(OC)c1 | inactive: 80%
Cc1ccccc1-n1c(=O)c2c3c(sc2n2cnnc12)CCCC3 | inactive: 79%
